Experimental data as given in the CheMixHub viscosity set.
± gives the uncertainty stated by the source. The source gives many values for each of these; only a part stands here.

Assay: xn = mol fraction of the nth substance listed

CC(=O)O + O
viscosity (293.15 K, 101.33 kPa, x1 = 0.05405): 1.342 ± 0.013 mPa·s
viscosity (293.15 K, 101.33 kPa, x1 = 0.06928): 1.407 ± 0.012 mPa·s
viscosity (293.15 K, 101.33 kPa, x1 = 0.1111): 1.66 ± 0.017 mPa·s
viscosity (293.15 K, 101.33 kPa, x1 = 0.14): 1.742 ± 0.014 mPa·s
viscosity (293.15 K, 101.33 kPa, x1 = 0.221): 2.126 ± 0.021 mPa·s
viscosity (293.15 K, 101.33 kPa, x1 = 0.2483): 2.15 ± 0.022 mPa·s
viscosity (293.15 K, 101.33 kPa, x1 = 0.2736): 2.284 ± 0.023 mPa·s
viscosity (293.15 K, 101.33 kPa, x1 = 0.2837): 2.315 ± 0.023 mPa·s
viscosity (293.15 K, 101.33 kPa, x1 = 0.3175): 2.392 ± 0.02 mPa·s
viscosity (293.15 K, 101.33 kPa, x1 = 0.3187): 2.344 ± 0.023 mPa·s
viscosity (293.15 K, 101.33 kPa, x1 = 0.3459): 2.446 ± 0.024 mPa·s
viscosity (293.15 K, 101.33 kPa, x1 = 0.4211): 2.568 ± 0.026 mPa·s
viscosity (293.15 K, 101.33 kPa, x1 = 0.4804): 2.658 ± 0.027 mPa·s
viscosity (293.15 K, 101.33 kPa, x1 = 0.5154): 2.682 ± 0.027 mPa·s
viscosity (293.15 K, 101.33 kPa, x1 = 0.5454): 2.675 ± 0.023 mPa·s
viscosity (293.15 K, 101.33 kPa, x1 = 0.5625): 2.635 ± 0.069 mPa·s
viscosity (293.15 K, 101.33 kPa, x1 = 0.5775): 2.681 ± 0.027 mPa·s
viscosity (293.15 K, 101.33 kPa, x1 = 0.7753): 2.541 ± 0.025 mPa·s
viscosity (293.15 K, 101.33 kPa, x1 = 0.819): 1.914 ± 0.05 mPa·s
viscosity (293.15 K, 101.33 kPa, x1 = 0.9722): 1.338 ± 0.012 mPa·s
viscosity (293.15 K, 101.33 kPa, x2 = 0.0197): 1.33 ± 0.013 mPa·s
viscosity (293.85 K, 101.33 kPa, x1 = 0.47): 2.575 ± 0.068 mPa·s
viscosity (294.15 K, 101.33 kPa, x1 = 0.97): 1.212 ± 0.032 mPa·s
viscosity (294.34 K, 101.33 kPa, x1 = 0.0296): 1.145 ± 0.0092 mPa·s
viscosity (295.85 K, 101.33 kPa, x1 = 0.5999): 2.405 ± 0.063 mPa·s
viscosity (298.15 K, 101 kPa, x1 = 0.078): 1.202 ± 0.033 mPa·s
viscosity (298.15 K, 101 kPa, x1 = 0.1141): 1.352 ± 0.036 mPa·s
viscosity (298.15 K, 101 kPa, x1 = 0.1338): 1.192 ± 0.032 mPa·s
viscosity (298.15 K, 101 kPa, x1 = 0.1617): 1.572 ± 0.042 mPa·s
viscosity (298.15 K, 101.33 kPa, x1 = 0.06928): 1.234 ± 0.01 mPa·s
viscosity (298.15 K, 101.33 kPa, x1 = 0.14): 1.529 ± 0.013 mPa·s
viscosity (298.15 K, 101.33 kPa, x1 = 0.3175): 2.077 ± 0.018 mPa·s
viscosity (298.15 K, 101.33 kPa, x1 = 0.9722): 1.223 ± 0.011 mPa·s
viscosity (298.35 K, 101.33 kPa, x1 = 0.0296): 1.033 ± 0.0083 mPa·s
viscosity (302.34 K, 101.33 kPa, x1 = 0.0296): 0.948 ± 0.0076 mPa·s
viscosity (302.65 K, 101.33 kPa, x1 = 0.3914): 1.984 ± 0.053 mPa·s
viscosity (302.85 K, 101.33 kPa, x1 = 0.97): 1.062 ± 0.028 mPa·s
viscosity (303.05 K, 101.33 kPa, x1 = 0.45): 1.994 ± 0.053 mPa·s
viscosity (303.05 K, 101.33 kPa, x1 = 0.819): 1.543 ± 0.041 mPa·s
viscosity (303.15 K, 101 kPa, x1 = 0.1338): 1.333 ± 0.036 mPa·s
viscosity (303.15 K, 101.33 kPa, x1 = 0.0446): 0.9936 ± 0.007 mPa·s
viscosity (303.15 K, 101.33 kPa, x1 = 0.06928): 1.099 ± 0.009 mPa·s
viscosity (303.15 K, 101.33 kPa, x1 = 0.1111): 1.262 ± 0.013 mPa·s
viscosity (303.15 K, 101.33 kPa, x1 = 0.14): 1.361 ± 0.011 mPa·s
viscosity (303.15 K, 101.33 kPa, x1 = 0.2111): 1.546 ± 0.011 mPa·s
viscosity (303.15 K, 101.33 kPa, x1 = 0.221): 1.638 ± 0.016 mPa·s
viscosity (303.15 K, 101.33 kPa, x1 = 0.2322): 1.606 ± 0.011 mPa·s
viscosity (303.15 K, 101.33 kPa, x1 = 0.2483): 1.665 ± 0.017 mPa·s
viscosity (303.15 K, 101.33 kPa, x1 = 0.2736): 1.711 ± 0.017 mPa·s
viscosity (303.15 K, 101.33 kPa, x1 = 0.2837): 1.76 ± 0.018 mPa·s
viscosity (303.15 K, 101.33 kPa, x1 = 0.3175): 1.842 ± 0.016 mPa·s
viscosity (303.15 K, 101.33 kPa, x1 = 0.3187): 1.801 ± 0.018 mPa·s
viscosity (303.15 K, 101.33 kPa, x1 = 0.3459): 1.909 ± 0.019 mPa·s
viscosity (303.15 K, 101.33 kPa, x1 = 0.4211): 1.995 ± 0.02 mPa·s
viscosity (303.15 K, 101.33 kPa, x1 = 0.4251): 1.962 ± 0.014 mPa·s
viscosity (303.15 K, 101.33 kPa, x1 = 0.4804): 2.04 ± 0.02 mPa·s
viscosity (303.15 K, 101.33 kPa, x1 = 0.5154): 2.073 ± 0.021 mPa·s
viscosity (303.15 K, 101.33 kPa, x1 = 0.5454): 2.064 ± 0.022 mPa·s
viscosity (303.15 K, 101.33 kPa, x1 = 0.5625): 2.024 ± 0.054 mPa·s
viscosity (303.15 K, 101.33 kPa, x1 = 0.5775): 2.083 ± 0.021 mPa·s
viscosity (303.15 K, 101.33 kPa, x1 = 0.6452): 1.951 ± 0.014 mPa·s
viscosity (303.15 K, 101.33 kPa, x1 = 0.7145): 1.824 ± 0.013 mPa·s
viscosity (303.15 K, 101.33 kPa, x1 = 0.7753): 2.001 ± 0.02 mPa·s
viscosity (303.15 K, 101.33 kPa, x1 = 0.9722): 1.14 ± 0.011 mPa·s
viscosity (303.15 K, 101.33 kPa, x2 = 0.0197): 1.139 ± 0.011 mPa·s
viscosity (303.35 K, 101.33 kPa, x1 = 0.5999): 2.014 ± 0.053 mPa·s
viscosity (303.45 K, 101.33 kPa, x1 = 0.47): 1.994 ± 0.053 mPa·s
viscosity (303.65 K, 101.33 kPa, x1 = 0.0296): 0.925 ± 0.0074 mPa·s
viscosity (303.65 K, 101.33 kPa, x1 = 0.333): 1.814 ± 0.048 mPa·s
viscosity (308.15 K, 101.33 kPa, x1 = 0.2): 1.303 ± 0.014 mPa·s
viscosity (308.15 K, 101.33 kPa, x1 = 0.4): 1.768 ± 0.019 mPa·s
viscosity (308.15 K, 101.33 kPa, x1 = 0.5): 1.847 ± 0.021 mPa·s
viscosity (308.15 K, 101.33 kPa, x1 = 0.55): 1.848 ± 0.021 mPa·s
viscosity (308.15 K, 101.33 kPa, x1 = 0.6): 1.81 ± 0.021 mPa·s
viscosity (308.15 K, 101.33 kPa, x1 = 0.8): 1.524 ± 0.017 mPa·s
viscosity (312.55 K, 101.33 kPa, x1 = 0.47): 1.603 ± 0.042 mPa·s
viscosity (312.55 K, 101.33 kPa, x1 = 0.819): 1.283 ± 0.034 mPa·s
viscosity (312.55 K, 101.33 kPa, x1 = 0.97): 0.923 ± 0.024 mPa·s
viscosity (312.65 K, 101.33 kPa, x1 = 0.5294): 1.623 ± 0.043 mPa·s
viscosity (312.65 K, 101.33 kPa, x1 = 0.6924): 1.523 ± 0.04 mPa·s
viscosity (313.15 K, 101 kPa, x1 = 0.1338): 1.067 ± 0.029 mPa·s
viscosity (313.15 K, 101.33 kPa, x1 = 0.03226): 0.802 ± 0.008 mPa·s
viscosity (313.15 K, 101.33 kPa, x1 = 0.0446): 0.7993 ± 0.0056 mPa·s
viscosity (313.15 K, 101.33 kPa, x1 = 0.1139): 1.053 ± 0.011 mPa·s
viscosity (313.15 K, 101.33 kPa, x1 = 0.2111): 1.221 ± 0.0085 mPa·s
viscosity (313.15 K, 101.33 kPa, x1 = 0.2308): 1.335 ± 0.013 mPa·s
viscosity (313.15 K, 101.33 kPa, x1 = 0.2322): 1.255 ± 0.0088 mPa·s
viscosity (313.15 K, 101.33 kPa, x1 = 0.333): 1.453 ± 0.039 mPa·s
viscosity (313.15 K, 101.33 kPa, x1 = 0.3914): 1.543 ± 0.041 mPa·s
viscosity (313.15 K, 101.33 kPa, x1 = 0.4118): 1.623 ± 0.016 mPa·s
viscosity (313.15 K, 101.33 kPa, x1 = 0.4251): 1.517 ± 0.011 mPa·s
viscosity (313.15 K, 101.33 kPa, x1 = 0.5454): 1.679 ± 0.017 mPa·s
viscosity (313.15 K, 101.33 kPa, x1 = 0.5625): 1.593 ± 0.042 mPa·s
viscosity (313.15 K, 101.33 kPa, x1 = 0.6452): 1.533 ± 0.011 mPa·s
viscosity (313.15 K, 101.33 kPa, x1 = 0.7145): 1.381 ± 0.0097 mPa·s
viscosity (313.15 K, 101.33 kPa, x2 = 0.0132): 1.035 ± 0.01 mPa·s
viscosity (313.25 K, 101.33 kPa, x1 = 0.45): 1.563 ± 0.041 mPa·s
viscosity (313.25 K, 101.33 kPa, x1 = 0.4999): 1.593 ± 0.042 mPa·s
viscosity (313.45 K, 101.33 kPa, x1 = 0.5999): 1.583 ± 0.042 mPa·s
viscosity (318.15 K, 101.33 kPa, x1 = 0.2): 1.095 ± 0.012 mPa·s
viscosity (318.15 K, 101.33 kPa, x1 = 0.4): 1.403 ± 0.016 mPa·s
viscosity (318.15 K, 101.33 kPa, x1 = 0.5): 1.449 ± 0.017 mPa·s
viscosity (318.15 K, 101.33 kPa, x1 = 0.55): 1.45 ± 0.017 mPa·s
viscosity (318.15 K, 101.33 kPa, x1 = 0.6): 1.433 ± 0.016 mPa·s
viscosity (318.15 K, 101.33 kPa, x1 = 0.8): 1.226 ± 0.014 mPa·s
viscosity (321.65 K, 101.33 kPa, x1 = 0.5625): 1.343 ± 0.035 mPa·s
viscosity (322.45 K, 101.33 kPa, x1 = 0.45): 1.293 ± 0.034 mPa·s
viscosity (322.55 K, 101.33 kPa, x1 = 0.97): 0.812 ± 0.021 mPa·s
viscosity (322.65 K, 101.33 kPa, x1 = 0.4999): 1.313 ± 0.035 mPa·s
viscosity (322.65 K, 101.33 kPa, x1 = 0.819): 1.072 ± 0.028 mPa·s
viscosity (322.85 K, 101.33 kPa, x1 = 0.5294): 1.313 ± 0.035 mPa·s
viscosity (322.95 K, 101.33 kPa, x1 = 0.47): 1.293 ± 0.034 mPa·s
viscosity (323.05 K, 101.33 kPa, x1 = 0.6924): 1.242 ± 0.033 mPa·s
viscosity (323.15 K, 101 kPa, x1 = 0.1338): 0.8332 ± 0.023 mPa·s
viscosity (323.15 K, 101.33 kPa, x1 = 0.0446): 0.6488 ± 0.0045 mPa·s
viscosity (323.15 K, 101.33 kPa, x1 = 0.2111): 0.957 ± 0.0067 mPa·s
viscosity (323.15 K, 101.33 kPa, x1 = 0.2322): 0.9904 ± 0.0069 mPa·s
viscosity (323.15 K, 101.33 kPa, x1 = 0.4251): 1.187 ± 0.0083 mPa·s
viscosity (323.15 K, 101.33 kPa, x1 = 0.6452): 1.198 ± 0.0084 mPa·s
viscosity (323.15 K, 101.33 kPa, x1 = 0.7145): 1.17 ± 0.0082 mPa·s
